According to the supplement of paper PMC8285479:
Counter-ions that a name gives are not always drawn. ± gives the standard deviation of the averaged measurements. The full ranking holds about 1,900 compounds; the median of “normalised cell viability (NPI; 0 = phenylarsine oxide control, 1 = DMSO control)” is about 1, and the lowest 2% start at about 0.039. Some of the results follow.

Test system: NCI-H1944
Assay: normalised cell viability (NPI; 0 = phenylarsine oxide control, 1 = DMSO control) (fraction of DMSO control); NCI-H1944 is a non-small cell lung cancer line; higher = more viable cells (less compound toxicity)
Details: 6 days
[1] = glucocorticoid arm: hydrocortisone 2.75 uM co-treatment, compound 1 µM
[2] = glucocorticoid arm: hydrocortisone 2.75 uM co-treatment, compound 5 µM
[3] = glucocorticoid arm: hydrocortisone 2.75 uM pre-treated 2 days and continued, compound 1 µM
[4] = glucocorticoid arm: hydrocortisone 2.75 uM pre-treated 2 days and continued, compound 5 µM
[5] = glucocorticoid arm: vehicle, compound 1 µM
[6] = glucocorticoid arm: vehicle, compound 5 µM
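Also: CTB read-out in 384-well plates, mean of triplicate wells, normalised per plate against 1 µM phenylarsine oxide and 0.1% DMSO, compounds added 24 h after seeding.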

Structure (SMILES)	normalised cell viability [1]	normalised cell viability [2]	normalised cell viability [3]	normalised cell viability [4]	normalised cell viability [5]	normalised cell viability [6]
N=C(NCCC[C@H](N)C(=O)O)N[N+](=O)[O-] [NG-Nitro-L-arginine]	1.003 ± 0.0058	1.01 ± 0.022	1.01 ± 0.017	0.86 ± 0.24	1 ± 0.012	1.001 ± 0.0085
O=c1c2ccccc2[se]n1-c1ccccc1 [Ebselen]	1.003 ± 0.0064	1.03 ± 0.011	1.005 ± 0.0092	1.03 ± 0.011	1.001 ± 0.0081	1.003 ± 0.0064
CCCN(CCC)C1Cc2cc(OC)c(OC)cc2C1	0.9987 ± 0.0023	0.976 ± 0.013	1.01 ± 0.021	0.9727 ± 0.0097	1.01 ± 0.01	1 ± 0.011
CC(=O)O[C@H]1C[C@@H]2CC[C@@H]3[C@H](CC[C@@]4(C)[C@H]3C[C@H]([N+]3(C)CCCCC3)[C@@H]4OC(C)=O)[C@@]2(C)C[C@@H]1[N+]1(C)CCCCC1 [Pancuronium dibromide]	0.997 ± 0.015	0.963 ± 0.03	1 ± 0.03	0.9813 ± 0.0075	1 ± 0.011	1.005 ± 0.0092
CC(=O)O[C@H]1C[C@@H]2CC[C@@H]3[C@H](CC[C@@]4(C)[C@H]3C[C@H]([N+]3(C)CCCCC3)[C@@H]4OC(C)=O)[C@@]2(C)C[C@@H]1[N+]1(C)CCCCC1 [Pancuronium bromide]	1 ± 0.015	1.02 ± 0.01	1.006 ± 0.0075	1.05 ± 0.069	1.01	1.013 ± 0.0058
CN1CCc2cccc(Cl)c2CC1	0.9977 ± 0.004	1.006 ± 0.0075	1.01 ± 0.026	0.9743 ± 0.0085	0.9863 ± 0.0015	0.9927 ± 0.0025
O=C(NCC1CCOCC1)c1cnc(Nc2ccc(Cl)cc2Cl)nc1C(F)(F)F	1.04 ± 0.015	1.02 ± 0.015	1.04 ± 0.017	1.001 ± 0.0081	1.017 ± 0.0058	1.003 ± 0.0058
COC(=O)[C@@H](N)CCCNC(=N)N[N+](=O)[O-] [NG-Nitro-L-arginine methyl ester hydrochloride]	1.02 ± 0.018	1.01 ± 0.038	1.02 ± 0.022	0.988 ± 0.023	1.017 ± 0.0058	1.02 ± 0.015
Cn1c(CCCC(=O)O)nc2cc(N(CCCl)CCCl)ccc21 [bendamustine hydrochloride]	1.02 ± 0.011	0.348 ± 0.02	1.007 ± 0.0058	0.7867 ± 0.0031	0.9937 ± 0.006	0.0218 ± 0.0032
CN1CCc2cc(O)cc3c2[C@H]1Cc1ccc(O)c(O)c1-3 [R(-)-2,10,11-Trihydroxyaporphine hybrobromide]	0.9983 ± 0.0029	0.993 ± 0.0087	0.994 ± 0.014	0.953 ± 0.0099	0.999 ± 0.01	1.01 ± 0.034
O=C1CC[C@@]2(O)[C@H]3Cc4ccc(O)c5c4[C@@]2(CCN3CC2CC2)[C@H]1O5 [Naltrexone HCl]	1.03 ± 0.011	1.03 ± 0.011	1.03 ± 0.015	1.02 ± 0.022	1.007 ± 0.0058	1.003 ± 0.0058
O=C1CC[C@@]2(O)[C@H]3Cc4ccc(O)c5c4[C@@]2(CCN3CC2CC2)[C@H]1O5 [Naltrexone hydrochloride]	1 ± 0.02	0.995 ± 0.039	1.02 ± 0.01	1.01 ± 0.038	1 ± 0.0095	1.013 ± 0.0058
CN1CC[C@@]2(C)c3cc(O)ccc3N(C)C12 (single isomer, unassigned; (-)) [(-)-Eseroline fumarate]	0.9967 ± 0.0058	0.972 ± 0.013	1.03 ± 0.045	0.971 ± 0.011	0.9967 ± 0.0042	0.996 ± 0.012
CCN1C[C@]2(C)CC[C@H](O)[C@]34C1[C@@H](C[C@H]23)[C@@]1(O)C[C@H](OC)[C@H]2C[C@@H]4[C@@H]1[C@H]2O [Karakoline]	0.9937 ± 0.0065	1 ± 0.019	1.007 ± 0.0058	1.04 ± 0.082	0.987 ± 0.001	0.9897 ± 0.0096
CC(=O)[C@H]1CC[C@H]2[C@@H]3CC[C@H]4C[C@H](O)CC[C@]4(C)[C@H]3CC[C@]12C [5alpha-Pregnan-3alpha-ol-20-one]	1.013 ± 0.0058	1.05 ± 0.015	0.892 ± 0.21	1.07 ± 0.061	1.013 ± 0.0058	1.01 ± 0.011
CC(C)(C)c1cc(C=C(C#N)C#N)cc(Br)c1O	0.963 ± 0.072	1.01 ± 0.014	1.001 ± 0.0082	1.02 ± 0.01	0.9947 ± 0.0049	0.9947 ± 0.0061
C[Se]C[C@H](N)C(=O)O [Se-(methyl)selenocysteine hydrochloride]	1.006 ± 0.0069	1.02 ± 0.015	1	0.859 ± 0.28	1.006 ± 0.0069	1.01 ± 0.016
CCCN1CCC[C@@H](c2cccc(C#N)c2)C1 [S(-)-DS 121 hydrochloride]	1.017 ± 0.0058	0.972 ± 0.034	1.01 ± 0.01	0.985 ± 0.033	1.02	1.04 ± 0.047
CC(NC(C)(C)C)C(=O)c1cccc(Cl)c1 (centres undefined) [Bupropion hydrochloride]	1.003 ± 0.0061	1.013 ± 0.0058	0.9973 ± 0.0038	1 ± 0.014	0.985 ± 0.0087	0.988 ± 0.011
CC(NC(C)(C)C)C(=O)c1cccc(Cl)c1 (centres undefined) [Amfebutamone HCl]	1 ± 0.014	1.01 ± 0.015	1.01 ± 0.01	0.999 ± 0.0098	1.007 ± 0.0058	1.005 ± 0.0087
N[C@]1(C(=O)O)CC[C@H](C(=O)O)C1 (racemic) [trans-(±)-ACPD]	0.992 ± 0.017	1.001 ± 0.0085	0.9957 ± 0.0067	0.9975 ± 0.0035	0.986 ± 0.012	0.987 ± 0.0099
Oc1ccc2c3c1O[C@H]1c4[nH]c5ccccc5c4C[C@@]4(O)[C@@H](C2)N(CC2CC2)CC[C@]314 [Naltrindole hydrochloride]	0.997 ± 0.013	1.02 ± 0.026	1.01	1.033 ± 0.0058	0.9983 ± 0.0021	1.01 ± 0.023
CN1[C@@H]2C[C@@H](OC(=O)[C@H](CO)c3ccccc3)C[C@H]1[C@@H]1O[C@@H]12 [Scopolamine HBr]	1 ± 0.011	0.986 ± 0.024	1.02 ± 0.017	1 ± 0.029	1.003 ± 0.0061	0.991 ± 0.0066
CN1[C@@H]2C[C@@H](OC(=O)[C@H](CO)c3ccccc3)C[C@H]1[C@@H]1O[C@@H]12 [(-)-Scopolamine hydrobromide]	0.9923 ± 0.0015	0.983 ± 0.024	0.87 ± 0.23	0.987 ± 0.022	1.001 ± 0.009	0.9953 ± 0.0042
